The campaign covered roughly 410,000 compounds. About 1,200 (0.29%) were called active. The shares of active, inactive and inconclusive entries below differ from those in the screen. Calls follow the shape of the dose curve; as a rule, active = well fitted activation curve with a large enough effect; inconclusive = small, poorly fitted or top-dose-only effect; inactive = flat fitted curve, though single readings scatter. Potencies beside an inconclusive call are fits to weak or partial responses and may not hold up.
experiment: qHTS of Nrf2 Activators; settings: AREc32 ARE-luciferase reporter (MCF7-derived line), luminescence, 24 h; activation: at 46.1 µM (top of the series); also: nearly all actives have a fitted effect of over 65% in size; as to activation: % of control where 0% means no effect
Method in brief: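 Luminescent ARE reporter assay in AREc32_Fluc cells: overnight plating at 37 deg C, 24 hr compound incubation, Steady-Glo added, 30 min RT before reading.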
Potency is read from the fitted curve at half-maximal effect; tags tell the direction and shape of the fitted curve.

activation, inactive:
CC(OC(=O)CNC(=O)c1sc2ccccc2c1Cl)c1ccccc1 (configuration not stated) -0.45%
CCn1c(=O)c(=O)[nH]c2cc(C(=O)NCc3ccc(F)cc3)ccc21 0.205%
Cc1cc(C2=NNC(=Nc3ccc(S(=O)(=O)N4CCOCC4)cc3)SC2)c(C)n1C 0.396%
COc1ccc(C)cc1NC(=O)CSc1nnc(COc2ccc(Cl)cc2)n1Cc1ccco1 6.76%
COc1cc(NC(=O)CN2C(=O)c3ccccc3Sc3ccc(C(=O)N4CCCC4)cc32)cc(OC)c1 13.7%
O=C(c1cc(-c2ccc(Cl)cc2)on1)N1CCOCC1 -1.46%
NC(=O)C1CCN(C(c2ccccc2)c2nnnn2C2CCCC2)CC1 (configuration not stated) -0.0031%
COc1ccc2[nH]c3c(=O)n(Cc4ccc(C(=O)N5CCCCCC5)cc4)c(=S)[nH]c3c2c1 0.739%
C=CCn1c(=O)c2c3c(sc2n2c(Nc4ccc(C(=O)OCC)cc4)nnc12)CCCC3 -0.227%
Clc1ccc(-n2c(Cc3ccccc3)nnc2SCc2nc(-c3cccs3)no2)cc1 0.0029%
COc1ccc(NC(=O)c2oc3ccccc3c2NC(=O)C2CCCCC2)c(OC)c1 -0.122%
CCCC(=O)OCCNC(=O)c1cc2ccccc2oc1=O 0.685%

Potency, inconclusive:
Cn1ccc2c(N(Cc3ccccc3)Cc3ccccc3)cc3c(c21)C1CCC3O1 (configuration not stated) 7.08 µM [activator, partial curve, poor fit]
N/C(=N\OC(=O)c1ccc(F)cc1)c1ccc(Br)cc1 17.8 µM [activator, partial curve, poor fit]
Cc1cccc(C(=O)O/N=C(\N)c2ccc(Br)cc2)c1 8.91 µM [activator, partial curve]
O=C(Nc1nccs1)c1cc(-c2ccco2)nc2ccccc12 7.94 µM [activator, partial curve]
Nc1ccc(Nc2nc(-c3ccncc3)cs2)cc1 14.1 µM [activator, partial curve, poor fit]
CCCCCCC(=O)N(O)C1CC(=O)N(Cc2ccccc2)C1=O (configuration not stated) 35.5 µM [activator, single point]
C=CC(=O)Oc1ccc(N2Cc3ccccc3C2=O)cc1 22.4 µM [activator, single point]
O=C(CN1CC(=O)Oc2ccccc21)OCC(=O)c1ccccc1 15.8 µM [activator, single point]
COc1cc(/C=C2\CCc3ccccc3C2=O)cc(OC)c1OC 25.1 µM [activator, single point]

Potency, active:
CSc1nc2nc(C(F)(F)F)cc(-c3ccccc3)n2n1 14.1 µM

Source: PubChem BioAssay AID624171 (National Center for Advancing Translational Sciences (NCATS), 2012)
